Results on 26 compounds are retold here after PubChem BioAssay AID1508623 (National Center for Advancing Translational Sciences (NCATS), 2021).

In all, about 48,000 compounds went through this assay and about 450 (0.94%) were called active. About 19% were inconclusive and are not listed. Calls follow the shape of the dose curve; as a rule, active = well fitted inhibition curve with a large enough effect; inconclusive = small, poorly fitted or top-dose-only effect; inactive = no such curve, though single readings can be large or run the other way. The list shows a part of the results.

This experiment can be described thus: Primary qHTS for Identification of Small Molecule Inhibitors of Huntingtin Promoter Activity. Also: nearly all actives have a fitted effect of over 50% in size. The following applies: HEK293 HTT promoter firefly luciferase reporter (activity 0% = vehicle and -100% = no light), 24 h; series mostly up to 57.5 µM; activity change, negative = inhibition: at the top concentration. The method, boiled down: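 Firefly luciferase readout (Dual-Glo, 10 min RT) after 24 h, 37 °C compound exposure (final up to 57.5 uM) of HEK293 reporter cells cultured 24 h beforehand; PTC124 at 50 uM final as control inhibitor; activity scaled vehicle 0%, zero RLU -100%.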
Turning to `CC(=O)c1cc(-c2ccc(F)cc2)n(CC(=O)NC2CCCCCC2)c1C`, the “activity change, negative = inhibition” value is inactive: -24.4%.
On to `CCCOc1ccc(/C=C/C(=O)Nc2sc3c(c2C(=O)OCC)CCC(C)C3)cc1OC` (stereo unspecified), for which the “activity change, negative = inhibition” value was inactive: -6.95%.
`CCOc1ccc(CCNC(=O)CN2C(=O)c3cccnc3Oc3ccc(C)cc32)cc1OCC`: the “activity change, negative = inhibition” value is inactive: -2.03%.
As to `O=C(Nc1cccc(C(F)(F)F)c1)c1cc2nc(-c3ccccc3)cc(C(F)(F)F)n2n1`, the “activity change, negative = inhibition” value is inactive: 0.883%.
For `CCCOc1ccc(-c2cccc(NS(=O)(=O)c3cccs3)c2)nn1`, the “activity change, negative = inhibition” value is inactive: -13%.
For the compound `CCOc1ccccc1CNC(=O)CCCn1c(=O)c2cccn2c2cccnc21`, the “activity change, negative = inhibition” value is inactive: 1.53%.
Consider `Clc1ccc(N2CCN(Cc3nnc(-c4ccc5c(c4)OCO5)o3)CC2)cc1`, for which the “activity change, negative = inhibition” value was inactive: -7.03%.
For `COc1ccc(-c2cccc(NS(=O)(=O)c3cccs3)c2)nn1`, the “activity change, negative = inhibition” value is inactive: -14.8%.
Turning to `CN(C)CCOC(=O)C(c1ccccc1)C1(O)CCCC1` (stereo unspecified), the “activity change, negative = inhibition” value was inactive: 0.459%.
As for `CCCCN(CC)C(=O)c1c[nH]c2ccc(S(=O)(=O)Nc3cccc(OC)c3)cc2c1=O`, the figure is inactive: -3.71%; as for `COc1ccc(NC(=O)C2=C(C)Nc3c(C(=O)Nc4ccc(C)cc4)cnn3C2c2cccc(Cl)c2)cc1` (stereo unspecified), inactive: -9.02%.
The result for `COc1ccc(NC(=O)CC2Nc3cccc4cccc(c34)NC2=O)cc1` (stereo unspecified) reads inactive: -19.5%.
As for `Cc1ccc2oc(-c3cccc(NC(=O)c4cccc5c(Br)cccc45)c3)nc2c1`, the figure is inactive: 10.3%; as for `CC(=O)N1c2ccccc2CC1C(=O)N1CCN(c2cccc(C)c2C)CC1` (stereo unspecified), inactive: -21.2%.
Turning to `CCc1cc(Cl)c(OC)c(C(=O)NC[C@@H]2CCCN2CC)c1O`, the “activity change, negative = inhibition” value is inactive: 3.77%.
As for `Cc1ccc2onc(CC(=O)N3CCN(c4ccccc4F)CC3)c2c1`, the “activity change, negative = inhibition” value was inactive: -15.9%.
For `COc1ccc(-c2cc(C)no2)cc1S(=O)(=O)N1CCN(c2ccc(C(C)=O)cc2)CC1`, the “activity change, negative = inhibition” value was inactive: -25.6%.
The result for `O=C(CCCn1c(=O)c2cccn2c2ccccc21)Nc1cccc(Cl)c1` reads inactive: -25.5%.
On to `Clc1ccccc1CSc1nncn2c1cc1occc12`, for which the “activity change, negative = inhibition” value is inactive: 15.8%.
Consider `COc1ccc(C(=O)NCC(c2cccnc2)N2CCN(c3ccccc3F)CC2)cc1OC` (stereo unspecified), for which the “activity change, negative = inhibition” value is inactive: -30.4%.
In the case of `CCCc1nn2c(=O)cc(COC(=O)c3ccccc3NC(=O)C3CCCCC3)nc2s1`, the “activity change, negative = inhibition” value was inactive: -10.4%.
For the compound `CCC(=O)N1CCc2cc(S(=O)(=O)CCC(=O)NCc3ccccc3Cl)ccc21`, the “activity change, negative = inhibition” value is inactive: 1.48%.
On to `COC(=O)c1c(C)sc(-c2c(-c3ccc(F)cc3)[nH]c3[nH]c(=O)[nH]c(=O)c23)c1O`, for which the “activity change, negative = inhibition” value is inactive: 1.57%.
For `Cc1ccc(NC(=O)C2CCN(S(=O)(=O)c3cccs3)CC2)cc1`, the “activity change, negative = inhibition” value is inactive: -29.3%.
Take `CCC(=O)O[C@]1(C(=O)SCF)[C@H](C)C[C@H]2[C@@H]3C[C@H](F)C4=CC(=O)C=C[C@]4(C)[C@@]3(F)[C@@H](O)C[C@@]21C`: the activity change, negative = inhibition result was “inactive”.
As to `CCc1ccc(NC(=O)CN(c2ccc(C)cc2)S(=O)(=O)c2c(C)nn(C)c2C)cc1`, the “activity change, negative = inhibition” value is inactive: -18.6%.
